Test results: PubChem BioAssay AID1468 (National Center for Advancing Translational Sciences (NCATS), 2008)
Out of some 280,000 compounds screened, about 1,100 (0.39%) were called active. The inconclusive results got no clear call from the source; some entries with a clear call stand among them for comparison. Calls follow the shape of the dose curve; as a rule, active = well fitted inhibition curve with a large enough effect; inconclusive = small, poorly fitted or top-dose-only effect, or effect the other way; inactive = flat fitted curve, though single readings scatter. A potency beside an inconclusive call is a rough fit, not a confirmed value.

What follows are compounds tested against Microtubule-associated protein tau (Homo sapiens) (UniProt P10636) (assay: qHTS for Inhibitors of Tau Fibril Formation, Fluorescence Polarization). Settings: K18 P301L tau heparin fibrillization, Alexa594 FP, 6 h; series mostly up to 57.7 µM; activity, negative = inhibition: at the top concentration.
How it was run: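 Steps: dispense K18 P301L tau (15 uM plus 0.24 uM Alexa 594 tracer, final) in pH 7 sodium acetate; add compound; add heparin (20 uM final); incubate 6 hr, 37 C; add ThT (30 uM final); after 1 hr ambient, read FP.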
% is scaled to controls: 0 for no effect and ±100 for the full control effect; potency is read from the fitted curve at half-maximal effect; tags tell the direction and shape of the fitted curve.
Also: nearly all actives have a fitted effect of over 55% in size.

Sequence of UniProt P10636 (P10636 whole entry, looked up): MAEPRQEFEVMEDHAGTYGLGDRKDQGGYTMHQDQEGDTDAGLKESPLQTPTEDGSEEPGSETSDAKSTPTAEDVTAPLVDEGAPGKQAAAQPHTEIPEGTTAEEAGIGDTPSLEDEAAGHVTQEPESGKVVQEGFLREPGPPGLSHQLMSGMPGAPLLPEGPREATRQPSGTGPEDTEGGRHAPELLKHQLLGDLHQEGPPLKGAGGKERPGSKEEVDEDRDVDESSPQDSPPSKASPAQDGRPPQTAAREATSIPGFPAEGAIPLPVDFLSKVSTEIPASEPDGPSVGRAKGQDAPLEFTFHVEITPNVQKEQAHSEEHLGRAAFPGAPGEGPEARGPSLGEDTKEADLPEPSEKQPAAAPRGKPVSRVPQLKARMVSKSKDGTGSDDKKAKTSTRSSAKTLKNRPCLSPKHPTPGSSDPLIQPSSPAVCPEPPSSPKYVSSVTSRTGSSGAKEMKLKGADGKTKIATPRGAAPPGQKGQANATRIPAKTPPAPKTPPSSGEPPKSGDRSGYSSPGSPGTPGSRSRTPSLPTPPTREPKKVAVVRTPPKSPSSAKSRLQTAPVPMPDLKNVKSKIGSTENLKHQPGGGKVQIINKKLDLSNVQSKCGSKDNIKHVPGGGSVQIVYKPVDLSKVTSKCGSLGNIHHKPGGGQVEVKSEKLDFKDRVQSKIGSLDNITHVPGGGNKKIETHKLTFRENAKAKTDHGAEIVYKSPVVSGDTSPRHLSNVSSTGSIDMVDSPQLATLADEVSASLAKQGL

Potency, inconclusive:
O=C1OCC2OC(O)C(O)C(O)C2OC(=O)c2cc(O)c(O)c(O)c2-c2c(O)c(O)c3oc(=O)c4c(c(O)c(O)c5oc(=O)c2c3c54)-c2c1cc(O)c(O)c2O (stereo not drawn) 12.6 µM [inhibitor, partial curve]
COc1cc(-c2cc(C(=O)Nc3ccc(N4CCOCC4)cc3)c3ccccc3n2)cc(OC)c1OC 1.41 µM [activator, full curve, poor fit]
CC1=C(C(=O)OC(C)C)C2(O)C(=O)c3ccccc3C2(O)N1 (stereo not drawn) 5.01 µM [inhibitor, partial curve]
Cc1nn(-c2ccc(N3CCCC3)nn2)c(C)c1CCC(=O)N1CCN(c2ccccc2F)CC1 0.0251 µM [activator, full curve, poor fit]
Cc1ccc(-c2cc(C(=O)OCC(=O)Nc3cc(C)on3)c3ccccc3n2)c(C)c1 28.2 µM [inhibitor, partial curve]
C/C(=N\NC(=O)CSCc1ccc(Cl)cc1)c1ccc2c(c1)OCCO2 35.5 µM [inhibitor, single point]
O=C(/C=C/c1cc(Br)ccc1O)c1ccco1 7.94 µM [activator, partial curve]
COc1ccc2c(c1OC)C(=O)N1N=C(c3ccc(Br)cc3)CC21 (stereo not drawn) 2.51 µM [inhibitor, partial curve, poor fit]
COc1cc(/C=N/NC(=O)c2cccc([N+](=O)[O-])c2)ccc1OCc1ccc(C)cc1 10 µM [inhibitor, partial curve, poor fit]
Cc1cccc(CN2CCC(CNc3ncnc4onc(-c5ccc(Cl)cc5)c34)CC2)c1 3.98 µM [inhibitor, partial curve, poor fit]
Cc1cc(-c2ccccc2)nc2c(Br)c(=O)[nH]n12 14.1 µM [inhibitor, partial curve]
CCCCOC(=O)c1ccc(Nc2ncnc3c2cnn3-c2cccc(C)c2)cc1 7.94 µM [inhibitor, partial curve]
COc1ccccc1Oc1ccc2c(c1)C(=O)N(c1cccc(O)c1)C2=O 7.08 µM [inhibitor, full curve, poor fit]
Cc1ccnc(NC(=O)CSc2nnc3c(n2)[nH]c2ccccc23)c1 25.1 µM [inhibitor, partial curve, poor fit]
CCN(c1ccccc1)S(=O)(=O)c1ccc(Cl)c(NC(=O)COC(=O)c2ccc(O)cc2)c1 8.91 µM [inhibitor, partial curve]
Nc1cc2nc[nH]c2cc1N 14.1 µM [inhibitor, partial curve]
O=c1n(S(=O)(=O)c2cccc3cccnc23)c2ccccc2n1S(=O)(=O)c1cccc2cccnc12 20 µM [inhibitor, partial curve]
CC(=O)Nc1nonc1-c1nnc(SCC(=O)Nc2ccc(C)c(Cl)c2)n1C 31.6 µM [inhibitor, single point]
COc1ccccc1/C=C/C=N/n1c(-c2ccc(C)cc2)n[nH]c1=S 39.8 µM [inhibitor, single point]
CC(C)C12CN3CC(C(C)C)(CN(C1)C3c1ccccc1)C2O (stereo not drawn) 5.01 µM [inhibitor, full curve, poor fit]
CCOC(=O)c1ccc(NC(=O)CCc2nc(-c3cccc(C)c3)no2)cc1 17.8 µM [inhibitor, partial curve]
CCC1CN(C(=O)N2CCC(C(=O)NCCCc3ccccc3)CC2)c2cc(C)ccc2O1 (stereo not drawn) 2 µM [activator, full curve, poor fit]
COC(=O)N/N=C(\C)c1ccc(-n2ccnc2)cc1 2.82 µM [inhibitor, partial curve]
CCOc1ccc(N2Cc3ncccc3C2=O)cc1 1 µM [activator, full curve, poor fit]
Cc1cccc(NC(=S)NNC(=O)CCn2nc(C)c([N+](=O)[O-])c2C)c1 1.12 µM [inhibitor, full curve, poor fit]
CCC(c1nnnn1Cc1ccco1)N(CCc1ccccc1)Cc1cc2cccc(C)c2[nH]c1=O (stereo not drawn) 39.8 µM [inhibitor, single point]
COc1cc2nc(CN3CCN(C(C)=O)CC3)[nH]c(=O)c2cc1OC 15.8 µM [inhibitor, single point]
O=C(CSc1ncc2c(n1)-c1ccccc1N(Cc1ccc(Cl)cc1)S2(=O)=O)c1ccc(Cl)cc1 25.1 µM [inhibitor, partial curve, poor fit]
CCCOC(=O)c1ccc(Oc2cn[nH]c2-c2ccc(O)cc2O)cc1 22.4 µM [inhibitor, partial curve, poor fit]
Cn1cc2ccc(N)cc2n1 0.251 µM [inhibitor, full curve]
CCN(C(=O)c1sc2nc3n(c(=O)c2c1C)CCCC3)c1ccccc1F 14.1 µM [inhibitor, partial curve, poor fit]
Cc1ccc(CCNC(=O)c2cc(-c3ccccc3)n[nH]2)cc1 14.1 µM [inhibitor, single point]
COc1ccc2nc(C(F)(F)C(F)(F)F)c(C#N)c(N)c2c1 15.8 µM [inhibitor, partial curve]
O=c1c2c3nc4ccccc4nc3n(Cc3ccccc3)c2ncn1Cc1ccco1 15.8 µM [inhibitor, partial curve]
O=C(NC1CC(=O)N(c2ccc(Cl)cc2)C1)C(=O)c1c[nH]c2ccccc12 (stereo not drawn) 28.2 µM [inhibitor, single point]
O=C(/C=C/c1cccc([N+](=O)[O-])c1)n1cnc2ccccc21 15.8 µM [inhibitor, partial curve]
O=C(Nc1nc(-c2ccc(S(=O)(=O)N3CCCC3)cc2)cs1)C1COc2ccccc2O1 (stereo not drawn) 20 µM [inhibitor, partial curve]
CCc1ccc2c(c1)c1nnc(NN)nc1n2C 44.7 µM [inhibitor, single point]
O=C(/C=C/c1ccccc1)Nc1ncn[nH]1 8.91 µM [inhibitor, partial curve]
COc1ccc(-c2nsc(NC(=O)c3ccccc3Br)n2)cc1 39.8 µM [inhibitor, single point]
COc1ccc(C(=O)NCC(=O)OCC(=O)Nc2cc([N+](=O)[O-])ccc2F)cc1 14.1 µM [inhibitor, partial curve, poor fit]
CCOC(=O)C1CCN(CC(=O)Nc2c(C(=O)OC)[nH]c3ccc(Cl)cc23)CC1 2.24 µM [activator, full curve]

Potency, active:
Cc1cc(O)c(C=O)c2c1C(=O)Oc1c(CO)c(O)c3c(c1O2)C(O)OC3=O (stereo not drawn) 15.8 µM

Potency, inactive:
OCCN(CCO)c1nc(N2CCCCC2)c2nc(N(CCO)CCO)nc(N3CCCCC3)c2n1

activity, negative = inhibition, inactive:
O=C1CC(c2ccco2)Cc2nc(NCC3CCCO3)ncc21 (stereo not drawn) -3.21%
O=C(NCCO)Nc1ccc2nsnc2c1 -3.73%
CCCCOc1cccc(C(=O)NC(=S)Nc2ccc(Cl)c(C(=O)O)c2)c1 8.07%
Cc1nnsc1S(=O)(=O)Cc1ccccc1C(F)(F)F 1.66%
CCC(C)C(NC(=O)OC(C)(C)C)C(=O)NC(Cc1ccccc1)C(=O)OC (stereo not drawn) -1.15%
COc1ccc(-n2nc(C(=O)NCCc3ccc(Cl)cc3)c3c4ccccc4n(C)c3c2=O)cc1 -6.86%
COc1ccc(C2c3c(-c4ccccc4)n[nH]c3C(=O)N2c2ccc(C(=O)O)cc2)c(OC)c1 (stereo not drawn) 0.912%
Nn1c(Cc2cccc3ccccc23)nnc1SC1CCOC1=O (stereo not drawn) -2.32%
COc1ccc2c(c1)O[C@H](c1ccc3c(c1)OCO3)[C@@H](OC(=O)NS(=O)(=O)c1ccc(C)cc1)C2=O 11%
Cc1ccccc1-n1c(O)c(/C=C/C=Nc2ccccc2)c(=O)[nH]c1=O -6.89%
Cc1cn2c(=O)cc(COc3ccc(NC(=O)c4ccc(C(C)(C)C)cc4)cc3)nc2s1 -3.88%
CCOC(=O)c1cc(CC)sc1NC(=O)c1cc(OC)c(OC)c(OC)c1 2.48%
COc1ccc(C2C(C(C)=O)=C(C)N=c3s/c(=C\c4ccco4)c(=O)n32)c(OC)c1 (stereo not drawn) -6.24%
Cc1ccc(NC(=O)Cn2cccc2)c(Br)c1 1.36%
Cn1c(O)c(N=Nc2ccc(F)cc2)c2ccccc21 -5.62%
COc1ccc(CCn2c(-c3ccncc3)n[nH]c2=S)cc1OC -4.17%
Cc1nnc(N2CCN(C(=O)Nc3cc(F)ccc3F)CC2)c2nn(-c3ccc(Cl)cc3)c(C)c12 -2.1%
O=C(NCC(c1cccnc1)N1CCN(c2ccc(F)cc2)CC1)c1ccc(F)cc1 (stereo not drawn) 0.873%
Cn1c(=O)c2c(nc(Sc3ccccc3N)n2C)n(C)c1=O -3.33%
O=C(CSc1ncn[nH]1)CSc1ncn[nH]1 -5.28%
COc1cccc(-c2csc(N3CCN(C(=S)Nc4ccccc4Cl)CC3)n2)c1 5.06%
CCOc1ccc2nc(NC(=O)c3nc(SC(C)C)ncc3Cl)sc2c1 4.41%
Cc1sc2nc(SCC(=O)C(C)(C)C)n(Cc3ccco3)c(=O)c2c1C 3.57%
CC(C)N(Cc1ccccc1)S(=O)(=O)c1ccc(N2CCCCS2(=O)=O)cc1 -0.421%
